Laboratory results reported in the supplement of paper PMC10441789.
This is one part of the list. Antibody binding of pooled human sera (four to six donors per pool; dilution not stated) to peptides of the Trypanosoma cruzi antigen TSSA on microarrays. Quantile-normalised fluorescence in arbitrary units, mean of duplicate arrays; higher = more binding. No active / inactive call. The uninfected pools are read here as the healthy donors of the same country. The strongest signals lie near the top of the scale (about 60,000).

Assays:
Assay in all cases: antibody binding signal (normalised fluorescence) (arbitrary fluorescence units); higher = stronger serum antibody binding to peptide
[1] = test system: pooled sera of chronic Chagas disease patients, Argentina
Method: (§1)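 Microarray of 15-residue peptides over residues 30-55 of Trypanosoma cruzi TSSAII, each with 1 to 10 substitutions at naturally variable positions, probed with one serum pool per country.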

[2] = test system: pooled sera of chronic Chagas disease patients, Bolivia
Method: as §1

[3] = test system: pooled sera of chronic Chagas disease patients, Brazil
Method: as §1

[4] = test system: pooled sera of chronic Chagas disease patients, Colombia
Method: as §1

[5] = test system: pooled sera of chronic Chagas disease patients, Mexico
Method: as §1

[6] = test system: pooled sera of chronic Chagas disease patients, USA
Method: as §1

[7] = test system: pooled sera of uninfected people, Argentina
Method: as §1

[8] = test system: pooled sera of uninfected people, Bolivia
Method: as §1

[9] = test system: pooled sera of uninfected people, Brazil
Method: as §1

[10] = test system: pooled sera of uninfected people, Mexico
Method: as §1

[11] = test system: pooled sera of uninfected people, USA
Method: as §1

Row | Sequence | antibody binding signal [1] | antibody binding signal [2] | antibody binding signal [3] | antibody binding signal [4] | antibody binding signal [5] | antibody binding signal [6] | antibody binding signal [7] | antibody binding signal [8] | antibody binding signal [9] | antibody binding signal [10] | antibody binding signal [11]
1 | DNKPATGGAPSQPGA | 716 | 14200 | 31400 | 357 | 399 | 2560 | 333 | 973 | 560 | 509 | 274
2 | PPSGKENKAAAGGTP | 6640 | 1210 | 3930 | 2690 | 4100 | 4260 | 3030 | 1320 | 567 | 159 | 239
3 | SGTENKTAAGGTPSP | 29400 | 6100 | 13000 | 6260 | 1020 | 4260 | 393 | 450 | 806 | 1900 | 182
4 | GKDNKAATGETPSPS | 7180 | 1640 | 14600 | 6530 | 5750 | 12700 | 236 | 371 | 118 | 242 | 2450
5 | DNKAAAGETPSQPGA | 1750 | 4840 | 38700 | 217 | 200 | 1860 | 125 | 810 | 234 | 301 | 140
6 | PSGTDKKTATGEAPS | 13900 | 20000 | 14300 | 1760 | 780 | 20500 | 213 | 584 | 253 | 284 | 242
7 | GKDNKPATGGAPSQP | 1200 | 3370 | 20200 | 1060 | 1710 | 2600 | 326 | 996 | 137 | 167 | 144
8 | TPPSGKDNKPATGEA | 29700 | 22500 | 36700 | 491 | 19900 | 23500 | 550 | 922 | 198 | 360 | 336
9 | GTDKKAAAGEAPSPS | 251 | 298 | 4080 | 1600 | 449 | 10300 | 182 | 228 | 97.7 | 196 | 111
10 | STPPSGTEKKTATGE | 31000 | 27700 | 26900 | 311 | 15900 | 3020 | 758 | 266 | 500 | 130 | 96.9
11 | SGTDNKAAAGGTPSP | 258 | 243 | 44900 | 4340 | 367 | 994 | 157 | 693 | 2500 | 191 | 222
12 | GTDKKTAAGETPSPS | 205 | 245 | 326 | 1510 | 439 | 2950 | 144 | 364 | 152 | 514 | 2040
13 | PPSGKENKPATGGAP | 7260 | 6680 | 8230 | 919 | 3260 | 11900 | 4970 | 3020 | 196 | 251 | 905
14 | KENKAAAGETPSPSG | 276 | 229 | 3970 | 259 | 236 | 2940 | 168 | 154 | 115 | 157 | 1720
15 | SGKDKKTAAGETPSP | 568 | 233 | 458 | 846 | 980 | 2030 | 160 | 105 | 89.6 | 83.3 | 214
16 | SGTDNKPATGEAPSQ | 39200 | 47200 | 45100 | 1090 | 223 | 33300 | 725 | 560 | 484 | 308 | 240
17 | GKENKAAAGGTPSPP | 884 | 340 | 2640 | 4470 | 1650 | 7210 | 254 | 74.1 | 300 | 96 | 107
18 | KKPATGGAPSPPGAS | 508 | 699 | 466 | 756 | 395 | 929 | 422 | 600 | 108 | 89.6 | 442
19 | DKKPAAGGTPSQSGA | 623 | 212 | 296 | 5050 | 304 | 1340 | 230 | 163 | 1670 | 140 | 307
20 | SGTEKKTATGETPSP | 568 | 819 | 1240 | 395 | 298 | 7490 | 341 | 420 | 185 | 198 | 626
21 | TPPSGTEKKTATGGA | 34800 | 1690 | 24200 | 452 | 4430 | 2970 | 1140 | 285 | 159 | 111 | 249
22 | SGKENKTATGGAPSP | 3490 | 914 | 17300 | 6760 | 4180 | 19400 | 7420 | 1850 | 138 | 632 | 174
23 | TENKPAAGGAPSPSG | 44400 | 1130 | 4000 | 1450 | 787 | 748 | 255 | 423 | 309 | 198 | 261
24 | TPPSGKDKKTATGET | 1710 | 635 | 2490 | 1140 | 23200 | 738 | 184 | 391 | 126 | 95.4 | 132
25 | PSGTENKTATGGAPS | 47900 | 24400 | 43600 | 2420 | 3800 | 9670 | 1370 | 611 | 430 | 772 | 473
26 | PPSGKDNKPAAGEAP | 1270 | 6150 | 25300 | 536 | 8610 | 20800 | 712 | 807 | 359 | 370 | 246
27 | TDNKPATGGTPSPSG | 927 | 826 | 2710 | 263 | 453 | 317 | 183 | 610 | 364 | 368 | 145

Row | Sequence | antibody binding signal [1] | antibody binding signal [2] | antibody binding signal [3] | antibody binding signal [4] | antibody binding signal [5] | antibody binding signal [6] | antibody binding signal [7] | antibody binding signal [8] | antibody binding signal [9] | antibody binding signal [10] | antibody binding signal [11]
28 | GTENKTATGGTPSPP | 32900 | 1520 | 812 | 1020 | 1140 | 1280 | 310 | 390 | 240 | 381 | 155
29 | KDKKTATGGAPSPPG | 441 | 215 | 217 | 1060 | 247 | 499 | 212 | 93.7 | 105 | 98 | 127
30 | KAATGETPSQPGASS | 7070 | 5280 | 41300 | 202 | 165 | 9250 | 159 | 1130 | 320 | 175 | 259
31 | KEKKTAAGEAPSQSG | 149 | 1260 | 549 | 312 | 190 | 3080 | 136 | 116 | 98.7 | 80.8 | 97.1
32 | KENKAAAGGTPSPSG | 167 | 216 | 159 | 1450 | 128 | 917 | 121 | 94.8 | 339 | 74.1 | 105
33 | PSGKDKKPAAGGAPS | 4930 | 799 | 3680 | 8890 | 7290 | 5640 | 114 | 250 | 108 | 80.8 | 96
34 | KAAAGEAPSPPGASS | 608 | 280 | 11100 | 350 | 229 | 7220 | 269 | 198 | 146 | 114 | 210
35 | TPPSGTDKKTAAGGT | 14900 | 1970 | 22800 | 8750 | 36000 | 2620 | 237 | 200 | 1060 | 281 | 148
36 | GTENKAATGGAPSPS | 40600 | 2300 | 3850 | 1620 | 2060 | 3020 | 301 | 512 | 511 | 170 | 179
37 | PSGTDKKAATGETPS | 3320 | 3030 | 13100 | 2960 | 917 | 11600 | 410 | 437 | 409 | 1400 | 240
38 | TPPSGKEKKPATGGA | 16200 | 333 | 795 | 1060 | 16100 | 752 | 492 | 699 | 137 | 118 | 389
39 | GKEKKPAAGETPSPS | 5850 | 665 | 1510 | 4140 | 7720 | 5190 | 127 | 159 | 93.5 | 89.4 | 483
40 | TPPSGTDNKTAAGET | 22700 | 30400 | 41700 | 418 | 3910 | 6730 | 465 | 490 | 593 | 135 | 169
41 | DNKTATGGAPSPPGA | 491 | 407 | 547 | 554 | 288 | 724 | 348 | 231 | 382 | 306 | 198
42 | PPSGKENKTATGETP | 12600 | 7100 | 4360 | 1440 | 1800 | 6280 | 1800 | 1640 | 249 | 265 | 277
43 | STPPSGKENKAATGE | 16200 | 25400 | 11300 | 428 | 2030 | 5340 | 2270 | 1660 | 354 | 210 | 316
44 | ISTPPSGTDNKPAAG | 51400 | 45700 | 50600 | 9420 | 28900 | 34400 | 1500 | 721 | 826 | 1670 | 624
45 | TEKKTATGETPSQPG | 1520 | 2520 | 30300 | 486 | 412 | 8210 | 325 | 416 | 514 | 313 | 255
46 | PSGTEKKPAAGGTPS | 21800 | 3690 | 15000 | 8900 | 7640 | 7640 | 818 | 394 | 1120 | 348 | 747
47 | PPSGKDNKTAAGEAP | 769 | 1010 | 2630 | 1980 | 4320 | 5130 | 498 | 792 | 292 | 198 | 258
48 | GTENKTATGEAPSPP | 27600 | 31000 | 20900 | 2750 | 2470 | 22000 | 123 | 261 | 137 | 138 | 104
49 | SGTEKKAAAGEAPSQ | 1220 | 11400 | 9090 | 828 | 1200 | 11600 | 101 | 556 | 420 | 119 | 104
50 | TPPSGKDNKAATGGT | 651 | 322 | 1800 | 393 | 18300 | 2980 | 366 | 609 | 559 | 87.2 | 187
51 | GTDKKPAAGGTPSQP | 434 | 249 | 1130 | 8720 | 549 | 899 | 212 | 322 | 1200 | 413 | 222
52 | SGTDKKPAAGGTPSQ | 767 | 4280 | 24900 | 17800 | 3100 | 1430 | 260 | 232 | 2070 | 3380 | 369
53 | TEKKPATGGTPSQSG | 1690 | 540 | 778 | 1920 | 1040 | 1460 | 331 | 439 | 1450 | 237 | 887
